Key:
Assay in all cases: FP
[1] = target: PTBi-G/A (G74A-G77A substitutions) (human, UniProt P49757 20-175, G74A | G77A)
[2] = target: PTBi-K/EE (R69E-K70E-K73E-K78E substitutions) (human, UniProt P49757 20-175, R69E | K70E | K73E | K78E)
[3] = target: PTBi mutant in the adjacent Lys81-Lys82 (human, UniProt P49757 20-175)
[4] = target: PTBi harboring the F162V mutation (human, UniProt P49757 20-175, F162V)

B1: rhodamine-labeled Mdm2^[…] (domain or fragment)
chain: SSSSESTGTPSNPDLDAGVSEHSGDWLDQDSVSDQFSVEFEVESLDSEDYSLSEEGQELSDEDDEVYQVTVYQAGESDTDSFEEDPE
modifications: rhodamine label (site not stated)
Kd [1]: 4.5 µM
Kd [2]: 224 µM
Kd [3]: 37.5 µM
Kd [4]: 4.2 µM

Source: paper PMC5800818 (2018)
